Test results: the supplement of paper PMC9446081
Hit rate of the full screen: of about 39,000 compounds, about 220 (0.56%) showed activity. The list shows a part of the results.

These compounds were tested on Escherichia coli K-12 BW25113 (assay: relative growth (OD600 normalised to plate interquartile mean) (fraction); higher = less growth inhibition, active = 0.2 or less). Conditions: 50 µM; LB; incubation time: overnight (16-24 h).
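Also: static incubation at 37 °C against the wild-type strain, values averaged over two biological replicates.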

Q: `CCNC(=O)C[C@@H]1CC[C@@H]2[C@@H](COc3ccc(NS(=O)(=O)c4ccccc4C)cc3C(=O)N2C)O1` was tested. Which relative growth did it give?
A: inactive: 0.987

Q: Which relative growth does the source give for `C[C@@H]1CCCCO[C@@H](CN(C)C(=O)Nc2cccc3ccccc23)[C@H](C)CN([C@H](C)CO)C(=O)c2cc(N(C)C)ccc2O1` here?
A: inactive: 1

Q: How did the relative growth turn out when `C[C@H](CO)N1C[C@H](C)[C@H](CN(C)C(=O)C2CCC2)Oc2cc(-c3ccc(C(=O)N(C)C)cc3)ccc2S1(=O)=O` was run?
A: inactive: 1.01

Q: For `C=C1CC23CC1(O)CCC2C12C=CC(O)C(C)(C(=O)O1)C2C3C(=O)O` (configuration not stated), which relative growth is on record?
A: inactive: 1.02

Q: For `COc1cc2c(cc1OC)C([C@H](C(=O)N(CCc1ccc(OC)c(OC)c1OC)CCc1ccc(OC)c(OC)c1OC)c1ccccc1)=NCC2`, which relative growth is on record?
A: inactive: 1.01

Q: With `C[C@H]1CN([C@@H](C)CO)C(=O)c2cc(NS(C)(=O)=O)ccc2O[C@H]1CN(C)S(=O)(=O)c1cn(C)cn1` as the compound, how does the relative growth read?
A: inactive: 1.01

Q: Which relative growth does the source give for `S=C1NCN(CCc2ccccc2)CN1` here?
A: inactive: 1.01

Q: How did the relative growth turn out when `COC(=O)CC[C@H]1CCCNC1` was run?
A: inactive: 0.98

Q: `C[C@@H]1CCCCO[C@@H](CN(C)Cc2ccc(C(=O)O)cc2)[C@@H](C)CN([C@@H](C)CO)C(=O)c2cc(NC(=O)Nc3ccc4c(c3)OCO4)ccc2O1` was tested. Which relative growth did it give?
A: inactive: 1.02

Q: For `COc1ccc(S(=O)(=O)Nc2ccc3c(c2)CC(=O)N([C@H](C)CO)C[C@H](C)[C@@H](CN(C)C)O3)cc1`, which relative growth is on record?
A: inactive: 0.998

Q: For `CC1=NN2C(=NN[C@@]2(C)c2ccccc2)NC1=O`, which relative growth is on record?
A: inactive: 0.966

Q: `Cc1cc(C)c2cc3c(nc2c1)NCC3` was tested. Which relative growth did it give?
A: inactive: 0.601

Q: For `COc1cccc(S(=O)(=O)N2C[C@H](O)COC[C@@H]3O[C@@H](CC(=O)N4CCN(C)CC4)CC[C@H]32)c1`, which relative growth is on record?
A: inactive: 0.901

Q: Which relative growth does the source give for `O=C1NCCN2CCN(C(=O)Cn3cccc3)C[C@@H]12` here?
A: inactive: 1

Q: With `COCCNC(=O)C[C@@H]1CC[C@H]2[C@H](COc3ccc(NS(=O)(=O)c4ccc(Cl)cc4)cc3C(=O)N2C)O1` as the compound, how does the relative growth read?
A: inactive: 0.967

Q: Which relative growth does the source give for `C[C@@H]1CCCCO[C@@H](CN(C)C(=O)c2ccncc2)[C@H](C)CN([C@@H](C)CO)C(=O)c2cc(NS(C)(=O)=O)ccc2O1` here?
A: inactive: 0.975

Q: With `C[C@@H]1CN([C@H](C)CO)C(=O)c2cc(C#CCN(C)C)cnc2O[C@@H]1CN(C)Cc1ccc(C(=O)O)cc1` as the compound, how does the relative growth read?
A: inactive: 1

Q: Which relative growth does the source give for `O=C(C[C@@H]1CC[C@H]2[C@@H](COC[C@@H](O)CN2C(=O)c2ccccc2F)O1)N1CCN(c2ccccc2)CC1` here?
A: inactive: 0.986

Q: With `C[C@@H]1CCCCO[C@@H](CN(C)Cc2ccccc2)[C@@H](C)CN([C@@H](C)CO)C(=O)c2cc(NS(=O)(=O)c3cccs3)ccc2O1` as the compound, how does the relative growth read?
A: inactive: 0.993

Q: `C[C@@H]1CN([C@H](C)CO)C(=O)c2cc(NC(=O)Nc3ccc(F)cc3)ccc2O[C@@H](C)CCCCO[C@H]1CN(C)Cc1ccncc1` was tested. Which relative growth did it give?
A: inactive: 1.03

Q: With `CN1CCN(c2c(F)cc3c(=O)c(C(=O)O)cn(CCF)c3c2F)CC1` as the compound, how does the relative growth read?
A: active: 0.0442

Q: With `CO[C@@H]1[C@H](N(C)C(=O)c2ccccc2)C[C@H]2O[C@]1(C)n1c3ccccc3c3c4c(c5c6ccccc6n2c5c31)C(=O)NC4` as the compound, how does the relative growth read?
A: inactive: 1.04

Q: For `C[C@@H]1CN([C@@H](C)CO)C(=O)c2c(c3ccccc3n2C)-c2ccccc2CO[C@H]1CN(C)Cc1cccc(F)c1`, which relative growth is on record?
A: inactive: 0.986

Q: With `COc1ccc(S(=O)(=O)Nc2ccc3c(c2)CC(=O)N([C@H](C)CO)C[C@@H](C)[C@@H](CN(C)Cc2ccc(C(=O)O)cc2)O3)cc1` as the compound, how does the relative growth read?
A: inactive: 0.991

Q: With `Nc1ccc(C(F)(F)F)cc1Cl` as the compound, how does the relative growth read?
A: inactive: 1.01

Q: How did the relative growth turn out when `OCC1OC(O)(CO)C(O)C1O` (configuration not stated) was run?
A: inactive: 1.11

Q: For `C[C@@H]1CCCCO[C@H](CN(C)C(=O)CCC(F)(F)F)[C@H](C)CN([C@@H](C)CO)C(=O)c2cc(NC(=O)CCC(F)(F)F)ccc2O1`, which relative growth is on record?
A: inactive: 0.982

Q: With `C[C@@]1(C(=O)O)NCCc2cc(O)c(O)cc21` as the compound, how does the relative growth read?
A: inactive: 0.971

Q: `OCc1cncnc1` was tested. Which relative growth did it give?
A: inactive: 1.02

Q: `C[C@@H]1O[C@H](O[C@H]2[C@H](OC(=O)[C@]34CCC(C)(C)C[C@@H]3C3=CC[C@@H]5[C@@]6(C)CC[C@H](O[C@@H]7O[C@@H](C)[C@H](O[C@@H]8OC[C@@H](O)[C@H](O)[C@H]8O)[C@@H](O)[C@H]7O)C(C)(C)[C@@H]6CC[C@@]5(C)[C@]3(C)C[C@@H]4O)OC[C@H](O)[C@H]2O)[C@H](O)[C@H](O)[C@H]1O[C@@H]1O[C@H](CO)[C@@H](O)[C@H](O)[C@H]1O` was tested. Which relative growth did it give?
A: inactive: 1

Q: With `C[C@@H]1CN([C@H](C)CO)C(=O)c2cc(NC(=O)Nc3ccc(C(F)(F)F)cc3)ccc2O[C@@H](C)CCCCO[C@@H]1CN(C)CC1CCCCC1` as the compound, how does the relative growth read?
A: inactive: 0.963

Q: With `Cc1noc(C)c1NC(=O)Nc1ccc2c(c1)C(=O)N([C@H](C)CO)C[C@@H](C)[C@@H](CN(C)S(=O)(=O)c1cccs1)OCCCC[C@@H](C)O2` as the compound, how does the relative growth read?
A: inactive: 1.02

Q: With `COc1ccc(NC(=O)Nc2cccc3c2O[C@H](CN(C)Cc2ccc(-c4ccccc4)cc2)[C@@H](C)CN([C@H](C)CO)C3=O)cc1` as the compound, how does the relative growth read?
A: inactive: 1.01

Q: For `C[C@@H]1CCCCO[C@@H](CN(C)C(=O)Nc2cccc3ccccc23)[C@@H](C)CN([C@H](C)CO)C(=O)c2cc(NC(=O)Nc3ccccc3)ccc2O1`, which relative growth is on record?
A: inactive: 1.06

Q: How did the relative growth turn out when `C[C@H](CO)N1C[C@H](C)[C@H](CN(C)Cc2ccc(C(F)(F)F)cc2)Oc2c(NC(=O)Nc3ccc(F)cc3)cccc2C1=O` was run?
A: inactive: 0.997

Q: Which relative growth does the source give for `C[C@H](CO)N1C[C@H](C)[C@@H](CN(C)C(=O)Nc2ccc3c(c2)OCO3)OCCCC[C@H](C)Oc2ccc(NS(=O)(=O)c3ccc(Cl)cc3)cc2C1=O` here?
A: inactive: 1.03

Q: Which relative growth does the source give for `C[C@@H]1CCCCO[C@@H](CN(C)C(=O)Nc2cccc3ccccc23)[C@@H](C)CN([C@@H](C)CO)C(=O)c2cc(NC(=O)Nc3cccc4ccccc34)ccc2O1` here?
A: inactive: 0.849

Q: `Cc1noc(C)c1NC(=O)Nc1ccc2c(c1)C(=O)N([C@@H](C)CO)C[C@@H](C)[C@H](CN(C)Cc1ccc(C(=O)O)cc1)OCCCC[C@H](C)O2` was tested. Which relative growth did it give?
A: inactive: 1.01

Q: `Nc1nonc1C(=O)OCC(=O)N1CCOCC1` was tested. Which relative growth did it give?
A: inactive: 0.916

Q: Which relative growth does the source give for `CC(=O)On1cc(F)c(=O)[nH]c1=O` here?
A: active: 0.0691

Q: Which relative growth does the source give for `C[C@@H]1CN([C@@H](C)CO)C(=O)c2cc(NC(=O)C3CC3)ccc2O[C@H]1CN(C)C(=O)Nc1ccc2c(c1)OCO2` here?
A: inactive: 0.977

Q: `Cc1ccc(Oc2nnc(-c3cccs3)c3ccccc23)cc1` was tested. Which relative growth did it give?
A: inactive: 0.901

Q: `Cc1noc(C)c1NC(=O)Nc1cccc2c1O[C@H](CN(C)Cc1ccc(C(=O)Nc3ccccc3N)cc1)[C@@H](C)CN([C@H](C)CO)C2=O` was tested. Which relative growth did it give?
A: inactive: 1.03

Q: With `Cn1cnc(CN)c1` as the compound, how does the relative growth read?
A: inactive: 1.03

Q: With `C[C@H]1CN([C@@H](C)CO)C(=O)Cc2cc(NC(=O)Nc3ccc4c(c3)OCO4)ccc2O[C@@H]1CN(C)Cc1ccc(C(=O)Nc2ccccc2N)cc1` as the compound, how does the relative growth read?
A: inactive: 1

Q: How did the relative growth turn out when `C[C@H]1CN([C@@H](C)CO)C(=O)c2c(c3ccccc3n2C)-c2ccccc2CO[C@H]1CN(C)C(=O)c1cc(Cl)cc(Cl)c1` was run?
A: inactive: 1.15

Q: Which relative growth does the source give for `O=C(C[C@H]1CC[C@@H]2[C@H](COC[C@H](O)CN2C(=O)c2cccnc2)O1)NCC1CC1` here?
A: inactive: 0.993

Q: How did the relative growth turn out when `Cc1noc(C)c1NC(=O)N(C)C[C@H]1OCCCC[C@@H](C)Oc2ccc(NS(=O)(=O)c3ccccc3)cc2C(=O)N([C@H](C)CO)C[C@H]1C` was run?
A: inactive: 1.01

Q: How did the relative growth turn out when `O=C(O)CC[C@H]1CCCCN1` was run?
A: inactive: 0.996

Q: With `Cc1ccc(S(=O)(=O)N2C[C@H](O)COC[C@@H]3O[C@H](CC(=O)N4CCc5ccccc5C4)CC[C@H]32)cc1` as the compound, how does the relative growth read?
A: inactive: 1

Q: Which relative growth does the source give for `C[C@H]1CCCCO[C@@H](CN(C)CC2CCCCC2)[C@@H](C)CN([C@@H](C)CO)C(=O)c2cc(NC(=O)c3ccccc3)ccc2O1` here?
A: inactive: 1.01

Q: How did the relative growth turn out when `CON=C(C(=O)NC1C(=O)N2C(C(=O)[O-])=C(COC(N)=O)CSC12)c1ccco1.[Na+]` (configuration not stated) was run?
A: active: 0.0464

Q: `COc1ccc(S(=O)(=O)N(C)C[C@@H]2Oc3cc(C#CC4CCCC4)ccc3S(=O)(=O)N([C@H](C)CO)C[C@H]2C)cc1` was tested. Which relative growth did it give?
A: inactive: 1.05

Q: For `C[C@@H]1CN([C@H](C)CO)C(=O)c2cccc(NC(=O)c3nc4ccccc4s3)c2O[C@H]1CN(C)Cc1ccc(C(=O)Nc2ccccc2N)cc1`, which relative growth is on record?
A: inactive: 0.992

Q: Which relative growth does the source give for `COc1ccc(NC(=O)Nc2ccc3c(c2)C(=O)N([C@@H](C)CO)C[C@@H](C)[C@@H](CN(C)C(=O)Nc2cccc4ccccc24)O3)cc1` here?
A: inactive: 1.04

Q: Which relative growth does the source give for `O=C1[C@@H]2[C@H](C(=O)N1c1ccccc1)C13COC[C@H](c4ccccc4)N1C(=O)C2(C(=O)NCCc1c[nH]c2ccccc12)O3` (some centres not stated) here?
A: inactive: 0.999

Q: `C[C@@H]1CCCCO[C@H](CN(C)C(=O)c2ccccc2)[C@H](C)CN([C@@H](C)CO)C(=O)c2cc(NC(=O)C3CCCCC3)ccc2O1` was tested. Which relative growth did it give?
A: inactive: 1

Q: How did the relative growth turn out when `COc1ccc(NC(=O)Nc2ccc3c(c2)C(=O)N([C@@H](C)CO)C[C@H](C)[C@@H](CN(C)Cc2ccccc2)OCCCC[C@@H](C)O3)cc1` was run?
A: inactive: 1.01

Q: With `C[C@H](CO)N1C[C@H](C)[C@@H](CN(C)Cc2ccc(C(=O)O)cc2)OCc2ccccc2-c2c(n(C)c3ccccc23)C1=O` as the compound, how does the relative growth read?
A: inactive: 0.997

Q: How did the relative growth turn out when `CC(C)N1CC[C@@H](CN(C)Cc2ccc(Cl)cc2)Oc2c(NC(=O)c3ccncc3)cccc2C1=O` was run?
A: inactive: 0.988

Q: For `CCO[C@@H]1OC(C(=O)N2CCOCC2)=C[C@H](c2ccccc2)[C@H]1CCCOC(=O)NCCCCCC(=O)NO`, which relative growth is on record?
A: inactive: 0.98

Q: `CC1(C)OC2CC3C4CCC5=CC(=O)C=CC5(C)C4(F)C(O)CC3(C)C2(C(=O)CO)O1` (configuration not stated) was tested. Which relative growth did it give?
A: inactive: 1.11
